According to PubChem BioAssay AID488969 (Vanderbilt High Throughput Screening Facility, 2010):
The full ranking holds about 110,000 compounds; the median of “z-score” is about -0.1, and the highest 2% start at about 2. Some of the results follow. Calls of active or inactive are those of the source.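 How the source made its calls: active means z-score in the third read window above 3 or below -3; inactive means the rest.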

What follows are molecules tested against Metabotropic glutamate receptor 8 (Rattus norvegicus) (UniProt P70579) (assay: rat mGluR8 modulators via GIRK flux, primary screen, cell-based, thallium flux, HTS (AID 488969)). Details: HEK293 rat mGluR8, GIRK (G protein-gated inwardly rectifying potassium channel) thallium flux, FluoZin2; at 10 µM; stronger effect = higher value; submaximal glutamate (EC20) added with thallium.
Sequence of UniProt P70579 (P70579 whole entry, looked up): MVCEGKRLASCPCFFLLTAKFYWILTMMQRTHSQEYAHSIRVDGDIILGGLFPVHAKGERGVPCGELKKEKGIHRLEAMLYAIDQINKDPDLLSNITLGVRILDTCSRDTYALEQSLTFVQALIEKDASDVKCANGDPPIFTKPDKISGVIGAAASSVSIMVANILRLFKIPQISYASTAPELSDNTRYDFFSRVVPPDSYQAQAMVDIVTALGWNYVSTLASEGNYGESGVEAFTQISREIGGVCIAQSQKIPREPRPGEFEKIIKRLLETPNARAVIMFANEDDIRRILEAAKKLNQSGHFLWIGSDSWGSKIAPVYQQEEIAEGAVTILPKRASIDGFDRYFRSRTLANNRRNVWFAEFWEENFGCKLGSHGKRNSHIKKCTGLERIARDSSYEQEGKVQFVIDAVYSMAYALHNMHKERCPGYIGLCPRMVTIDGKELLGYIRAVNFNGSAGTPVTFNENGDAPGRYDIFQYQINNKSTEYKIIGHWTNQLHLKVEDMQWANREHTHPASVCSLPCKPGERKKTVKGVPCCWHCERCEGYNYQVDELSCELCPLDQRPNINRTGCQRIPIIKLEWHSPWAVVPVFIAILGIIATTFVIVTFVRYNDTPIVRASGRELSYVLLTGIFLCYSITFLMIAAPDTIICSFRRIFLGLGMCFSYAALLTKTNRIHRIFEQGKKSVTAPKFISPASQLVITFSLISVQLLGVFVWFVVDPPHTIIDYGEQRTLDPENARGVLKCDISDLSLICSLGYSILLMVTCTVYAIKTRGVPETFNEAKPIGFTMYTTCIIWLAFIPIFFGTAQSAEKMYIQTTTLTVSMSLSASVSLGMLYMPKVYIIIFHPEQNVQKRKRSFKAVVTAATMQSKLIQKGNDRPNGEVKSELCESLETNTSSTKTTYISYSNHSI

Compound	z-score
O=C(c1ccc2c(=O)n(C3CCCC3)c(=S)[nH]c2c1)N1CCc2ccccc21	active: 9.93
Cc1ccnc(Nc2nc(-c3c(C)nc4sccn34)cs2)c1	-0.978
COc1cccc(CNS(=O)(=O)c2cccc(S(=O)(=O)N3CCOCC3)c2)c1	0.606
O=C(OCc1ccccc1)c1cccc(-c2nnn(Cc3ccccc3)n2)c1	0.105
Cc1nc2oc3ccccc3c(=O)c2c(=O)n1Cc1ccccc1	1.14
COCCNC(=O)C(c1ccc(C)o1)N(Cc1ccccc1)C(=O)Cn1nnc2ccccc21 (centres undefined)	0.875
CN1CC(=O)N(C)c2nc(Br)n(C)c2C1=O	-0.15
CC1CCCN(Cc2nc3c(c(=O)n(C)c(=O)n3C)n2CCc2ccccc2)C1 (centres undefined)	-1.05
CCCn1c(SCC(=O)NCc2ccco2)nnc1C(C)C	-0.113
CCN(C(=O)CSc1nnnn1-c1ccccc1)c1c(N)n(Cc2ccccc2)c(=O)[nH]c1=O	-0.257
O=C(CSc1nnnn1-c1ccccc1)NC1CCCc2ccccc21 (centres undefined)	-0.442
CC1CCN(C(=O)c2scc3c2OCCO3)CC1	-0.162
COc1ccccc1-c1c(C(F)(F)F)oc2cc(OC(=O)c3cccc([N+](=O)[O-])c3C)ccc2c1=O	0.22
CCOC(=O)c1[nH]c2ccccc2c1NC(=O)CC(C)(C)C	0.0735
Fc1ccc(-c2ccc(/C=N\n3cnnc3)o2)cc1Cl	0.0159
Cc1ccccc1OCC(=O)Nc1cccc(N(C)S(C)(=O)=O)c1	0.502
CCOc1ccc2nc(NC(=S)NCc3ccccc3)sc2c1	1.45
O=C(CN(C(=O)CSc1nc2ccccc2o1)c1ccccc1)NC1CCCCC1	-0.215
CCOc1ccc(NC(=O)CCC(=O)O)cc1	0.636
CCCn1c(SCC(=O)Nc2sc(C)c(C)c2C#N)nnc1C(C)C	-0.268
Cc1cc(NC(=O)c2ccccc2)ncc1NC(=O)c1ccco1	0.325
Brc1ccccc1/C=N/Nc1ccc2ccccc2n1	-0.236

Compound	z-score
COc1ccc(N(CC(=O)NCc2ccco2)S(C)(=O)=O)cc1OC	-0.139
COc1ccc(C2C(C(=O)NC(C)C)c3ccccc3C(=O)N2C)cc1OC (centres undefined)	0.0574
COc1cc(NC(=O)CCc2ccccc2)nc(OC)n1	-0.243
COc1ccc(S(=O)(=O)N2CCN(CC(=O)Nc3cc(C(F)(F)F)ccc3Cl)CC2)cc1	-0.058
Cc1ccc(C2(c3ccc(C)cc3)CC2C(=O)Nc2ccc([N+](=O)[O-])cc2O)cc1 (centres undefined)	-0.0102
Cc1cc(-c2ccccc2)nc(Oc2ccc(C(C)(C)C)cc2)c1S(C)(=O)=O	0.179
O=[N+]([O-])c1cccc(/C=N/n2c(-c3cccnc3)n[nH]c2=S)c1	-0.909
CCOC(=O)c1nnc(-c2ccccc2)nc1NCc1ccc(Cl)cc1	-0.291
COc1ccc(NC(=O)CN2CCCCC2)c([N+](=O)[O-])c1	-0.149
COc1ccc(OC)c(NC(=O)c2c(NC(=O)CNCc3ccco3)sc3c2CCC3)c1	-0.00757
CCOc1ccc2nc(NCCNC(=O)Nc3ccccc3)c(C#N)cc2c1	0.399
CCn1c(SCC(=O)N/N=C/C=C/c2ccccc2[N+](=O)[O-])nnc1-c1ccc(Cl)cc1	0.0288
COc1ccc(-c2cc(=NC(CC(C)C)C(=O)O)c3cc(C)ccc3o2)cc1 (centres undefined)	-0.937
Cc1noc(C)c1S(=O)(=O)N(CCc1ccccc1)Cc1ccccc1	0.0661
O=C(CSc1nnc(-c2c[nH]c3ccccc23)o1)N1c2ccccc2CCc2ccccc21	-0.0356
CNC(=O)COC(=O)c1ccccc1Oc1ccccc1	-0.0504
O=C(Cc1ccccc1)N1CCN(C(=O)c2ccco2)CC1	-0.0691
CCN(CC)c1ccc2c(c1)oc(=O)c1c(Cl)cc(=O)oc12	-1.28
Cc1ccc(NC(=O)c2c(C)nn(-c3ccccc3)c2Cl)c(C)c1	-0.346
CSc1nc(Sc2ccc(Cl)cc2)c2ccccc2n1	0.0499
COc1ccc(N(C)C(=O)c2cnc(N3CCN(c4ncccn4)CC3)c3ccccc23)cc1	-0.865
CCc1nnc(NC(=O)c2cccc(OC)c2)s1	0.0121

Compound	z-score
CC(=O)C1=C(C)NC(=O)NC1c1ccccc1 (centres undefined)	0.833
Oc1csc(Cc2nc(-c3ccc4ccccc4c3)cs2)n1	-0.78
Cc1ccc(-c2cc(-c3nnc(SCC(=O)N(C)CCC#N)n3N)c3ccccc3n2)cc1	0.306
O=C(CCn1c2c(c3ccccc31)CCCC2)NNC(=O)c1cccc([N+](=O)[O-])c1	-0.0963
COc1ccc(N2CCN(C(=O)c3ccncc3)CC2)cc1	0.222
COC(=O)c1ccc(CSc2ccccc2C)o1	-0.171
Cc1nc(NC(=O)/C=C/c2ccc(Cl)cc2Cl)sc1C(=O)N(C)C	-0.0845
CC1(C)CC(=O)C=C(OC(=O)c2ccc(Cl)cc2)C1	-0.505
O=C(CSc1ncn[nH]1)N1N=C2/C(=C/c3ccco3)CCCC2C1c1ccco1 (centres undefined)	-0.93
C=C(C)Cn1c(Sc2nc3ccccc3[nH]2)nc2c1c(=O)[nH]c(=O)n2C	1.1
COc1ccccc1S(=O)Cc1ccc(C(=O)O)o1 (centres undefined)	-0.0279
CCC(=O)N(Cc1ccc(S(N)(=O)=O)cc1)C1CC(=O)N(c2ccc(OC)cc2)C1=O (centres undefined)	0.806
Cc1ccc(S(=O)(=O)CCc2ccccn2)cc1	-0.299
COc1ccc(Cc2nc3ccc(S(N)(=O)=O)cc3[nH]2)cc1OC	0.43
COCCCNC(=O)CNC(=S)N(Cc1cc(OC)c(OC)c(OC)c1)C1CCCC1	0.279
CCOP(=O)(O)c1ccccc1OCCOc1ccccc1P(=O)(O)OCC	-0.0166
CNC(=O)CC1C(=O)N(Cc2ccccc2)C(=S)N1NC(=O)c1cccc(F)c1 (centres undefined)	-0.202
CNC(=S)NNC(=O)Cn1ccc(C)n1	-0.17
O=C(NCC1COc2ccccc2O1)c1ccco1 (centres undefined)	-0.309
CCCC(=O)Nc1cc(-c2nc3ncccc3o2)ccc1C	0.726
CCOC(=O)N1CCN(c2c(NCCN3CCN(Cc4ccccc4)CC3)c(=O)c2=O)CC1	-0.338
Cc1occc1C(=O)NNC(=O)COc1ccc(Br)cc1Br	1.12

Compound	z-score
CC(=O)c1c(Nc2ccc3c(c2)OCCO3)oc(C)cc1=O	0.101
CCCCc1c(O)nc2sc3cc(OC)ccc3n2c1=O	1.06
CCC(=O)Nc1cccc(-c2nc3ccccc3c(=O)o2)c1	-0.784
Cc1ccc(NC(=S)N/N=C/c2ccc(Cl)c([N+](=O)[O-])c2)cc1	-0.0758
CCc1ccc2c(c1)/C(=C/C(=O)c1cccs1)C(=O)N2	-0.314
Cc1ccccc1CSCc1nc2ccccc2[nH]1	-0.127
COc1ccc(CCNC(=S)NC(=O)c2ccccc2)cc1OC	0.202
Fc1cccc(C2NC(=S)NC3=C2N2CCC3CC2)c1 (centres undefined)	-0.0491
CC(C)(C)N1CC2([N+](=O)[O-])CN(C(C)(C)C)CC([N+](=O)[O-])(C1)C2	-0.399
Cc1cc(NC(=O)c2ccc(Cl)cc2)no1	-0.394
COc1ccccc1CCn1c(N)c(C#N)c2nc3ccccc3nc21	-0.267
CCOC(=O)CN1C(=O)C(Sc2n[nH]c(-c3ccc(O)cc3)n2)CCc2ccccc21 (centres undefined)	-0.472
Cn1c(SCC(=O)CC(=O)Nc2ccccc2)nnc1-c1ccc(O)cc1	-0.391
Cc1ccc(CNC(=O)CSc2n[nH]c(N)n2)cc1	0.577
O=C(NCCCn1ccnc1)c1cccc(S(=O)(=O)Nc2ccccc2F)c1	0.215
O=C(NCc1ccco1)c1ccc2c(c1)N(Cc1ccccc1)C(=O)CS2=O (centres undefined)	0.587
Cc1cccc(-c2noc(CN(C(=O)CCc3ccccc3)C(C)C)n2)c1	-0.536
CCCN1C(=O)c2cc(C(=O)Nc3ccccc3CC)ccc2C1O (centres undefined)	0.174
Cc1ccc(Cl)cc1N1CCN(Cc2nnnn2C2CCCCC2)CC1	0.0236
O=C(CNS(=O)(=O)c1c(Cl)cccc1Cl)OCC(=O)N1CCN(c2ccccc2)CC1	-0.44
C=CCOC(=O)C1=C(C)NC(=O)NC1c1cn(-c2ccccc2)nc1-c1cccs1 (centres undefined)	-0.983
CCCN1CCN(C(=O)Cn2cccc2C(=O)c2ccccc2)CC1	-0.154

Compound	z-score
CCOc1ccc(C(=O)N[C@H](C(=O)O)C(C)C)cc1	0.285
Cc1nn(-c2ccc(Cl)c(Cl)c2Cl)c(=O)c2ccccc12	-0.689
COc1ccc(/C=N/NC(=O)c2ccccc2F)cc1CN1CCN(c2ccc(F)cc2)CC1	0.728
N#CC1=C(N)OC2=C(C(=O)CCC2)C12C(=O)N1CCCc3cccc2c31 (centres undefined)	-0.258
O=S(=O)(NCc1ccccn1)c1cccc2nsnc12	-0.293
CCOC(=O)c1c(C)nc2ncccn12	-0.404
COc1ccc(S(=O)(=O)N2CCSC2c2ccccc2)cc1 (centres undefined)	-0.063
COc1ccc(CCCc2nnc(SCC(=O)Nc3cccc(C)c3)o2)cc1	-0.111
CCn1c(SCC(=O)N2CCC(C)CC2)nnc1-c1ccc(S(=O)(=O)N2CCN(C)CC2)cc1	-0.184
Cc1ccc2nc(-c3ccc(NC(=O)C(C)N4C(=O)c5ccccc5C4=O)cc3)sc2c1 (centres undefined)	0.109
CC1=C(C(=O)Nc2ccccc2)C(c2ccco2)C(C#N)=C(SCC(=O)Nc2cccc(C)c2C)N1 (centres undefined)	0.693
CC(C)(C)C(=O)OCCn1c(=O)c2cc3c(=O)n(CCOC(=O)C(C)(C)C)c(=O)c3cc2c1=O	0.401
NC(=O)c1sc2nc3c(c(-c4ccco4)c2c1N)CCC3	-0.0701
NS(=O)(=O)c1ccc(NC(=S)NCc2cccc(Cl)c2)cc1	-0.429
CNS(=O)(=O)c1cccc(C(=O)OCc2cc(=O)n3cc(Br)ccc3n2)c1	-0.283
CCSCc1nnc(SCC(=O)Nc2cccc(SC)c2)n1C	-0.3
COc1ccc(Cn2c(C)cc3c(c2=O)C(c2cccs2)C(C#N)=C(N)O3)cc1OC (centres undefined)	-0.055
CCc1nc(SCC(=O)NNC(=O)C2CCCCC2)c2ccccc2n1	-0.133
CN(C)c1nc(NCc2ccccc2)nc(SCC(=O)Nc2ccc(Cl)c(Cl)c2)n1	-0.191
CC(=O)c1cccc(NC(=O)CN2C(=O)COc3ccc(Cl)cc32)c1	-0.183
COc1ccc(CN2C(=O)c3ccccc3C(/C=N\OCc3ccc(F)cc3)C2=O)cc1 (centres undefined)	0.722
